Among all 100,000 compounds or so, about 250 (0.25%) were called active. Inconclusive results, whose numbers are uncertain, are shown with a selection of clear calls. Calls come from the whole dose curve; as a rule, active = well fitted inhibition curve with a large enough effect; inconclusive = small, poorly fitted or top-dose-only effect; inactive = flat fitted curve, though single readings scatter. Potencies of inconclusive entries are left out as doubtful fits. Where a structure was tested more than once in an assay, its records may differ in their call.
What follows are compounds tested against Alanine aminotransferase 2 (Homo sapiens) (UniProt Q8TD30) (assay: Primary qHTS assay for inhibitors of Glutamate pyruvate transaminase 2 (GPT2)). Conditions: Recombinant GPT2, coupled pyruvate oxidase/HRP Amplex Red fluorescence; series mostly up to 57.7 µM.
UniProt Q8TD30, sequence (Q8TD30 whole entry, looked up): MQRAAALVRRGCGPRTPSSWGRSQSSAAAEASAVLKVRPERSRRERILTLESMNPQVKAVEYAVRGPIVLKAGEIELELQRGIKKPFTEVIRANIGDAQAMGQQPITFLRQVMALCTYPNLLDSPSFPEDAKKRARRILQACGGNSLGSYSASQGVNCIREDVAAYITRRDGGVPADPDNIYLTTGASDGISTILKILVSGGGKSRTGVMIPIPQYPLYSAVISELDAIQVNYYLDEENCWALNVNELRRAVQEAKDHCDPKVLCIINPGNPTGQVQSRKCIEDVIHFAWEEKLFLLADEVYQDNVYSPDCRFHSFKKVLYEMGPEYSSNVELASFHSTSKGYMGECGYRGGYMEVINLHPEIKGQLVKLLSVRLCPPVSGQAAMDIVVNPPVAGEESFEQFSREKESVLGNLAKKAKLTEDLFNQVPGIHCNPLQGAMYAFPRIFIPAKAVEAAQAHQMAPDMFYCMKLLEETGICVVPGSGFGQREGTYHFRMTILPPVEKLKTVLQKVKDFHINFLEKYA
Outline: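 Fluorescence read-out: pyruvate from GPT2 turnover coupled to pyruvate oxidase, HRP and Amplex Red (0.2mM ThPP, 0.2U/mL PO and HRP, 50uM Amplex final). Substrates 250uM a-KG, 2mM L-alanine; enzyme 10ng/uL; 30 min RT.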
Note: nearly all actives have a fitted effect of over 60% in size.
Potency is the fitted concentration of half-maximal effect; tags give direction and shape of the fitted curve.

Structure (SMILES)	Potency
Cn1cc(CC(=O)N2CCCc3ncc(C(=O)NCCc4ccccn4)cc32)c2ccccc21	inactive
CN1C(=O)C(CC(=O)NCCCN2CCc3ccccc3C2)=C2CCCCC21 (stereo unspecified)	inconclusive [inhibitor, single point]
COc1ccc(C(=O)N2C[C@@H](Oc3ccccc3)C[C@H]2C(=O)N2CCCC2)cc1	inconclusive [inhibitor, partial curve, poor fit]
COc1ccc(N2CCN(C3CCCN(CC(=O)N(C)C(C)C)C3)CC2)cc1 (stereo unspecified)	inconclusive [inhibitor, partial curve]
O=C(NCCC1CCN(C(=O)Nc2ccc(F)cc2F)CC1)c1cccc(F)c1	inconclusive [inhibitor, single point]
COc1ccc(C(=O)N2CCOCC3(CN(Cc4cc(F)cc(F)c4)C3)C2)c(OC)n1	inactive
COc1ccc(CCC(=O)NCCc2ncc(C)n2C2CCC2)cc1	inactive
COc1ccc(Cc2ncc3c(n2)CN(C(=O)c2ccc(Cl)c(C)c2)C3)cc1	inconclusive [inhibitor, single point]
COc1ccc(S(=O)(=O)N2CCC(c3noc(-c4cccnc4)n3)C2)cc1 (stereo unspecified)	inconclusive [inhibitor, single point]
COc1ccc(-c2ccc3ncc(Nc4cnccn4)n3n2)cc1OC	inconclusive [inhibitor, partial curve, poor fit]
CCOc1ccc(CC(=O)NC2CCN(c3cc(-c4ccc(F)cc4)[nH]n3)C2)cc1OCC (stereo unspecified)	inconclusive [inhibitor, single point]
NS(=O)(=O)NCCNc1nonc1C(=Nc1ccc(F)c(Br)c1)NO	inconclusive [inhibitor, single point]
O=C([C@@H]1CCCN1C(=O)Cn1ccc2ccccc2c1=O)N1CCOCC1	inconclusive [inhibitor, single point]
COc1ccccc1C(=O)NC1CCN(c2cc(-c3cccs3)[nH]n2)C1 (stereo unspecified)	inconclusive [inhibitor, single point]
COCCN(C)C[C@@H]1CN(C(=O)c2ccc(C(C)=O)s2)C[C@@H]1CO	inconclusive [inhibitor, single point]
O=C(NCCC1CCN(C(=O)Nc2ccccc2)CC1)c1cccs1	inconclusive [inhibitor, single point]
CNC(=O)CCn1ncc2cc(OCc3ccccc3-c3ccc(OC)cc3C)ccc21	inactive
CCCCCOc1ccc(-c2cc(-c3ccc(C(=O)N[C@H]4C[C@@H](O)[C@@H](O)NC(=O)C5[C@@H](O)[C@@H](C)CN5C(=O)C([C@H](O)CC(N)=O)NC(=O)C([C@H](O)[C@@H](O)c5ccc(O)c(OS(=O)(=O)O)c5)NC(=O)C5C[C@@H](O)CN5C(=O)C([C@@H](C)O)NC4=O)cc3)no2)cc1 (stereo partly specified)	inactive
CN(C)c1cc(N2CCCC(N)C2)ncn1 (stereo unspecified)	inconclusive [inhibitor, single point]
OC1(CNc2cc(C(F)(F)F)nc(N3CCCC3)n2)CCCNCC1 (stereo unspecified)	inconclusive [inhibitor, partial curve, poor fit]
CC(=O)N[C@@H](CCC(=O)O)C(=O)O	inconclusive [inhibitor, single point]

Structure (SMILES)	Potency
COCCOC1CCOC2(CCN(C(=O)CCn3nc(C)cc3C)CC2)C1 (stereo unspecified)	inconclusive [inhibitor, single point]
COc1cncc(N2C[C@H]3[C@H](C2)[S+](=O)([O-])C(C)(C)C(=O)N3Cc2ccccc2)c1	inconclusive [inhibitor, single point]
CC(=O)N1CCC(N2CCC[C@H]2c2nc(-c3ccc(-n4ccnc4)nc3)no2)CC1	inconclusive [inhibitor, single point]
Cc1nn2c(c1-c1ccccc1N1CCCC1)N(C(=O)c1ccc(F)cc1)CCC2	inactive
Cn1ncc2c(C(=O)NCC3CC3)cc(-c3ccc(Cl)nc3)nc21	inconclusive [inhibitor, full curve]
CNC(=O)N1CCC(OC2CCN(S(C)(=O)=O)CC2)CC1	inconclusive [inhibitor, single point]
COCCn1c(CO)nnc1C1CC(NC(=O)c2ccoc2C)C1 (stereo unspecified)	inactive
COc1ccccc1Nc1ccnc(N2CCN(C(=O)c3ccc(Cl)nc3)CC2)n1	inactive
O=C(NCc1cccnc1)c1cc(-c2ccccc2F)cc2c1OCCN2Cc1cccnc1	inconclusive [inhibitor, single point]
Fc1cccc(CN2CCNc3cc(Nc4cccnc4)ncc3C2)c1	inconclusive [inhibitor, partial curve, poor fit]
CC(C)CCC(C)Nc1ncnc2c1CN(C1CCCNCC1)C(=O)CN2C (stereo unspecified)	inconclusive [inhibitor, partial curve]
COCCOC1CN(C2CCN(C(=O)c3cnccn3)CC2)C12CCCCC2 (stereo unspecified)	inconclusive [inhibitor, single point]
CN(C)Cc1nnc(C2CC(NC(=O)c3ccc4c(c3)CCO4)C2)n1C (stereo unspecified)	inactive
C[C@@H]1O[C@@H](O[C@@H]2[C@@H](O[C@@H]3O[C@@H](C)[C@H](O[C@@H]4OC[C@H](O)[C@H](O[C@@H]5OC[C@@H](O)[C@H](O)[C@H]5O)[C@H]4O)[C@@H](O[C@@H]4OC[C@](O)(CO)[C@H]4O)[C@H]3O)[C@H](OC(=O)[C@]34CCC(C)(C)C[C@H]3C3=CCC5[C@@]6(C)C[C@H](O)[C@H](O[C@@H]7O[C@H](CO[C@@H]8OC[C@H](O)[C@H](O)[C@H]8O)[C@@H](O)[C@H](O)[C@H]7O)C(C)(C)C6CC[C@@]5(C)[C@]3(C)C[C@H]4O)OC[C@H]2O)[C@H](O)[C@H](O)[C@H]1O (stereo partly specified)	inconclusive [inhibitor, single point]
CC(C)CNC(=O)c1cc(-c2cccc(C(F)(F)F)c2)nc2c1cnn2C	inconclusive [inhibitor, partial curve]
Cc1ccc(Nc2ccnc(N3CCCC3C(=O)N3CCC(Cc4ccccc4)CC3)n2)cc1 (stereo unspecified)	inconclusive [inhibitor, single point]
O=C(C1CCCN(c2nccc(Nc3ccccc3F)n2)C1)N1CCCC1 (stereo unspecified)	inconclusive [inhibitor, partial curve, poor fit]
O=C(NCc1cccc(Cl)c1)c1nc2sccn2c1-c1cccc(C(F)(F)F)c1	inactive
COc1ccc(OCC2(C)COc3ccc(C(=O)N(C)CCN(C)C)cc3N2)cc1 (stereo unspecified)	inactive
NC(=O)N/N=C/c1ccc([N+](=O)[O-])o1	active: 31.6 µM
COc1ccc(CN2C[C@H]3CN(Cc4cnn(C)c4)CCN3C2=O)cc1	inactive

Structure (SMILES)	Potency
CCC(C)Oc1ccc(CNC(=O)c2cn(CCN)nn2)cc1 (stereo unspecified)	inactive
COc1ccccc1C(=O)N[C@H]1[C@H](O)[C@H](O)C[C@@H]1c1ccc(N2CCOCC2)nc1	inconclusive [inhibitor, single point]
Cc1cccc(OCC(=O)N2[C@@H]3CC[C@H]2CC(NC(=O)c2cnc(C)cn2)C3)c1 (stereo partly specified)	inactive
CS(=O)(=O)N1CCC(Cc2ccc(C(=O)NCCc3ccccc3)cc2)CC1	inactive
O=C(C1CCCCN1Cc1ccc(-c2ccsc2)cc1)N1CCCC1 (stereo unspecified)	inactive
C/C=C/C=C/C=C/C(=O)O[C@@H]1C=C(CO)C(O)(C(=O)O)[C@@]2(C)CCCC(C)(C)[C@H]12 (stereo partly specified)	inconclusive [inhibitor, single point]
O=C(Nc1ccc(Cl)cc1)c1nc2c(o1)CCN(Cc1ccc3c(c1)CCO3)CC2	inconclusive [inhibitor, full curve, poor fit]
O=C(c1cc(-c2ccccc2)n[nH]1)N1CCCC(Cc2noc(-c3cnccn3)n2)C1 (stereo unspecified)	inactive
COc1ccc(NC(=O)c2ccc(-c3ccc(C(=N)N)cc3C)cc2)cc1N1CCN(C)CC1	inconclusive [inhibitor, single point]
COc1cc(CN2CCc3c(c(CN(C(C)=O)c4ccccc4)nn3C)C2)ccc1O	inactive
CCC[C@H]1CN(Cc2nc(C)no2)C[C@@H]1NC(=O)CCS(C)(=O)=O	inactive
Cc1cc(C)c(NC(=O)Cn2cccc2-c2nc(-c3ccccc3)no2)c(C)c1	inconclusive [inhibitor, single point]
COc1ccc(Nc2cnc3ccc(N4CCOCC4)nn23)cn1	inconclusive [inhibitor, partial curve, poor fit]
CC(C)N(C)Cc1nnnn1CC(=O)N1CCCC(OCc2ccccn2)C1 (stereo unspecified)	inconclusive [inhibitor, single point]
CCc1cccc(C)c1NC(=O)Cn1ccn2nc(-c3ccccc3)c(CO)c2c1=O	inactive
COc1ccc(CN2CCC(N3CCCNC3=O)CC2)cc1	inconclusive [inhibitor, single point]
C=C1C(=O)O[C@H]2CC(=C)[C@H]3CC[C@@](C)(O)[C@@H]3CC12 (stereo partly specified)	inconclusive [inhibitor, partial curve, poor fit]
NCc1cccc(-c2ccc3c(c2)C(=O)N2CC[C@H](NC(=O)NC4CCCCC4)[C@H]2C(=O)N3)c1	inconclusive [inhibitor, partial curve, poor fit]
O=C(NCC1CCCO1)c1ccc2oc(-c3ccc(C(F)(F)F)cc3)nc2c1 (stereo unspecified)	inconclusive [inhibitor, partial curve, poor fit]

— PubChem BioAssay AID1671188 (National Center for Advancing Translational Sciences (NCATS), 2021)
